Source: the antibiotic and cytotoxicity screens of Wong et al. (2023)
The list shows a part of the results.

Legend:
[1] = test system: HSkMC (human skeletal muscle cells); test: cytotoxicity call (relative viability < 0.9); settings: 10 µM
[2] = test system: HepG2; test: cytotoxicity call (relative viability < 0.9); settings: 10 µM
[3] = test system: S. aureus RN4220; test: growth inhibition call (relative growth <= 0.2); settings: 50 µM

| SMILES | cytotoxicity call [1] | cytotoxicity call [2] | growth inhibition call [3] |
| --- | --- | --- | --- |
| NCCCC[C@@H]1NC(=O)[C@@H](Cc2c[nH]c3ccccc23)NC(=O)[C@H](c2ccccc2)NC(=O)[C@@H]2C[C@@H](OC(=O)NCCN)CN2C(=O)[C@H](Cc2ccccc2)NC(=O)[C@H](Cc2ccc(OCc3ccccc3)cc2)NC1=O | inactive | inactive | inactive |
| CN(C)CCCNC(=O)C[C@@H]1CC[C@@H]2[C@H](COC[C@@H](O)CN2S(=O)(=O)c2ccc(F)cc2)O1 | inactive | inactive | inactive |
| C[C@H]1CN([C@@H](C)CO)C(=O)c2cc(C3=CCCCC3)cnc2O[C@@H]1CN(C)S(=O)(=O)c1cn(C)cn1 | inactive | inactive | inactive |
| C[C@H]1CN([C@@H](C)CO)C(=O)c2cc(NS(=O)(=O)c3ccccc3)ccc2O[C@H]1CN(C)C(=O)Nc1cccc2ccccc12 | inactive | inactive | inactive |
| CC(C)C[C@@H](NS(=O)(=O)c1ccc2[nH]c(=O)c(=O)[nH]c2c1)C(=O)O | inactive | inactive | inactive |
| COCCNC(=O)C[C@@H]1C[C@@H]2c3cc(NC(=O)Nc4ccc(C(F)(F)F)cc4)ccc3O[C@@H]2[C@@H](CO)O1 | inactive | inactive | inactive |
| COc1ccc(NC(=O)N(C)C[C@@H]2Oc3c(NC(=O)CCCCCC(=O)Nc4ccccc4N)cccc3C(=O)N([C@H](C)CO)C[C@H]2C)cc1 | inactive | inactive | inactive |
| COc1ccc(S(=O)(=O)Nc2cccc3c2O[C@@H](CN(C)S(=O)(=O)c2cccs2)[C@H](C)CN([C@@H](C)CO)C3=O)cc1 | inactive | inactive | inactive |
| C[C@@H]1CCCCO[C@@H](CN(C)Cc2ccc(C(=O)O)cc2)[C@H](C)CN([C@@H](C)CO)C(=O)c2cc(NC(=O)NC3CCCCC3)ccc2O1 | inactive | inactive | inactive |
| Cc1cc(C(=O)O)n[nH]1 | inactive | inactive | inactive |
| COc1ccc(S(=O)(=O)N(C)C[C@@H]2OCCCC[C@@H](C)Oc3ccc(NS(=O)(=O)c4cn(C)cn4)cc3C(=O)N([C@H](C)CO)C[C@H]2C)cc1 | inactive | inactive | inactive |
| C[C@@H]1CN([C@@H](C)CO)C(=O)Cc2cc(NC(=O)Cn3cnnn3)ccc2O[C@H]1CN(C)Cc1ccc(C(=O)O)cc1 | inactive | inactive | inactive |
| C[C@@H]1CN([C@H](C)CO)S(=O)(=O)c2ccc(C#CC(C)(C)O)cc2O[C@H]1CN(C)C(=O)CN(C)C | inactive | inactive | inactive |
| C[C@@H]1CN([C@@H](C)CO)C(=O)c2cc(NC(=O)Nc3ccc(C(F)(F)F)cc3)ccc2O[C@@H]1CN(C)Cc1ccc(Oc2ccccc2)cc1 | active | active | inactive |
| CC(C)CC#Cc1ccc2c(c1)O[C@@H](CN(C)S(=O)(=O)c1ccc(F)cc1)[C@@H](C)CN([C@@H](C)CO)S2(=O)=O | inactive | inactive | inactive |
| C[C@H](CO)N1C[C@H](C)[C@@H](CN(C)C(=O)CN2CCOCC2)Oc2cc(C#Cc3cccc(F)c3)ccc2S1(=O)=O | inactive | inactive | inactive |
| C[C@H](CO)N1C[C@H](C)[C@H](CN(C)C(=O)CCCN(C)C)OCCCC[C@H](C)Oc2ccc(NC(=O)Nc3ccc(C(F)(F)F)cc3)cc2C1=O | inactive | inactive | inactive |
| C[C@@H]1CN([C@@H](C)CO)C(=O)Cc2cc(NC(=O)c3ccncc3)ccc2O[C@@H]1CN(C)Cc1ccncc1 | inactive | inactive | inactive |
| CNC(=O)C[C@@H]1CC[C@@H]2[C@H](COC[C@H](O)CN2C(=O)c2ccc3c(c2)OCO3)O1 | inactive | inactive | inactive |
| C[C@H]1CN([C@@H](C)CO)C(=O)CCCn2nncc2CO[C@H]1CN(C)C(=O)Nc1ccc(C(F)(F)F)cc1 | inactive | inactive | active |
| O=C(C[C@@H]1CC[C@@H]2[C@H](COC[C@H](O)CN2S(=O)(=O)c2cccc(Cl)c2)O1)NCc1ccncn1 | inactive | inactive | inactive |
| CNC[C@H]1OCCCC[C@@H](C)Oc2ccc(NS(=O)(=O)c3cn(C)cn3)cc2C(=O)N([C@@H](C)CO)C[C@@H]1C | inactive | inactive | inactive |
| C[C@@H]1CN([C@H](C)CO)C(=O)Cc2cc(NC(=O)CCCN(C)C)ccc2O[C@H]1CN(C)S(=O)(=O)c1cccs1 | inactive | inactive | inactive |
| C[C@@H]1CN([C@@H](C)CO)C(=O)c2cc(NS(=O)(=O)c3ccc(Cl)cc3)ccc2O[C@H]1CN(C)C(=O)Nc1cccc2ccccc12 | inactive | inactive | inactive |
